Test results reported in PMC6919601, “Identification of Plasmodium dipeptidyl aminopeptidase allosteric inhibitors by high throughput screening” (PLoS ONE, 2019).
Several values for one entry are separate records, joined by “and”; a condition that tells them apart may be missing. Equal values may be shown once. The whole screen tested about 110,000 compounds, of which about 230 (0.21%) showed an effect of 50% or more. The list shows a part of the results.

Target: DPAP1 (Plasmodium falciparum, UniProt Q8IIJ9)
Test: primary screen, percent inhibition; read by cleavage of a fluorogenic dipeptide substrate; higher = more effect of the substance
Design: species or system P. falciparum D10 trophozoite lysates; single well
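Further: 30 min substrate incubation versus DMSO and 10 µM JCP410 controls.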

Chain of DPAP1 (Q8IIJ9 whole entry, looked up): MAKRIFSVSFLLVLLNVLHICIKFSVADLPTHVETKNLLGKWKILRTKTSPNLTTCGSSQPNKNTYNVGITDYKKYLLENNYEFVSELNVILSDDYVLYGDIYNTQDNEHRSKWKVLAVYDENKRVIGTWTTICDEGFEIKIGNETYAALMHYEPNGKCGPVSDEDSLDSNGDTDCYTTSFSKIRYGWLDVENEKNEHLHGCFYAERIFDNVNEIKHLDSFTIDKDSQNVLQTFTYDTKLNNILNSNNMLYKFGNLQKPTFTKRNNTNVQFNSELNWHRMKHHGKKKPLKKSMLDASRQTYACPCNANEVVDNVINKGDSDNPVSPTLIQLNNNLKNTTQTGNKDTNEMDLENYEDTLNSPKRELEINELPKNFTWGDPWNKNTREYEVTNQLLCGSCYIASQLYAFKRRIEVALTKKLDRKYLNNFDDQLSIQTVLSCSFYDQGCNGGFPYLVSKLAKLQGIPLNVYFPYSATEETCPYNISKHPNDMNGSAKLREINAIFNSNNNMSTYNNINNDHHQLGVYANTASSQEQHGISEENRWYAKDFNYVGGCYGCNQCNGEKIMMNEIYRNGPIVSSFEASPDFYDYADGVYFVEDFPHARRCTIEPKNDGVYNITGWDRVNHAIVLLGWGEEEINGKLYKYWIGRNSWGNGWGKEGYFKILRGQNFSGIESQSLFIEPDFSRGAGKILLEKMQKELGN

Row | Compound | % Inhibition @ 10 uM
1 | OCCN(Cc1ccccc1)Cc1ccccc1Cl | -0.603%
2 | Cc1ccc(CCNC(=O)C2CCC(CNc3c(N4CCC(C)CC4)c(=O)c3=O)CC2)cc1 (stereo not drawn) | -5.81%
3 | O=C(COc1cccc2ccccc12)Nc1cc(Cl)c(O)c(Cl)c1 | -2.98%
4 | Cc1cccc(NC(=O)c2ccc(F)cc2)c1C | 0.467%
5 | CCOc1ccc(-c2cc(NC(=O)c3cc4ccc5cccnc5c4[nH]3)on2)cc1OCC | -1.61%
6 | COCc1cc(C)nc2sc(C(=O)Nc3ccc(OC)cc3)c(N)c12 | -1.28%
7 | O=C(Nc1ccc(S(=O)(=O)N2CCN(c3ccc(F)cc3)CC2)cc1)c1ccco1 | 0.361%
8 | COc1cccc(-c2noc(CCCC(=O)NC(C)C)n2)c1 | 2.21%
9 | NC(=O)C1CCN(C(=O)c2cc(-c3ccccc3Cl)on2)CC1 | -3.33%
10 | Cc1ccc(-c2csc(N3N=C(c4ccccc4)CC3c3ccccc3)n2)cc1 (stereo not drawn) | -6.18%
11 | Cc1cc(O)nc(SCC(=O)Nc2ccc(Br)cc2)n1 | 0.777%
12 | CCOc1ccccc1C(=O)Nc1cccc(C)c1 | -0.796%
13 | CCCCN(CC)CCCn1cnc2c3ccccc3nc-2c1O | -0.0235%
14 | CCC(C)NC(=O)CSc1ncccc1C(=O)OC(C)C (stereo not drawn) | -1.34%
15 | Cc1cccc2sc(NC(=O)CCNS(=O)(=O)c3cc(Br)cnc3N)nc12 | -0.0652%
16 | CCOc1cc(/C=C2\Oc3ccc(C(=O)OC)cc3C2=O)ccc1O | -4.85%
17 | COc1cccc(OC)c1C(=O)Nc1ccc(C)cc1 | 7.78%
18 | COCCN1C(=O)/C(=C/c2ccc(SC)cc2)S/C1=N\c1ccccc1 | -1.64%
19 | CCCCNC(=O)c1c(-c2ccccc2)noc1C | 4.39%
20 | CC(=O)N[C@@H](CC1CCCCC1)C(=O)N[C@@H](C)C(=O)c1nc2ccccc2o1 | -5.43%
21 | Cc1ccc(Nc2nc(N)nc(CN3CCCCCC3)n2)cc1 | 8.62%
22 | COc1ccc(C(=O)Nc2ccc(F)c(F)c2)cc1OC | 4.49%
23 | CCOCCCNC(=O)c1ccc2c(c1)c(C)c(C)n2CC | -2.12%
24 | Nc1cc(-c2ccccc2)nc2ccccc12 | 0.162% and -2.82%
25 | CCN(CC)c1ccc(C2Nc3ccccc3N=C3CC(C)(C)CC(O)=C32)cc1 (stereo not drawn) | 3.48%
26 | Cn1cnc2cc(NC(=O)c3cccs3)ccc21 | 0.83%

Row | Compound | % Inhibition @ 10 uM
27 | Cc1ccc(SC(C)C(=O)N2CCN(c3ccc(F)cc3)CC2)cc1 (stereo not drawn) | -14.4%
28 | C=CCn1c(S)nnc1-c1ccccc1C | -2.65%
29 | Cc1nnc2c(N3CCc4ccccc4C3)nc3ccccc3n12 | -0.205%
30 | O=C(NCc1cccs1)C1=CCN(S(=O)(=O)c2ccc(F)cc2)CC1 | -0.0745%
31 | Cc1ccc(S(=O)(=O)N(CCc2ccccc2)CC(=O)N2CCOCC2)cc1 | -4.21%
32 | O=C(N[C@@H](Cc1ccc2ccccc2c1)C(=O)N[C@@H](CCc1ccccc1)C(=O)c1nc2ccccc2o1)OCc1ccccc1 | 1.35%
33 | CCNC(=O)NCc1nc(-c2ccc(OC)cc2)no1 | -3.49%
34 | C=C(C)CN(CC)Cc1cc(Cl)ccc1O | 1.9%
35 | COC(=O)c1ccc(/C=C2/C=C(c3ccc(C)cc3)OC2=O)cc1 | 1.84%
36 | CC(C)NC(=O)Cn1ncc2c3ccccc3n(Cc3ccc(F)cc3)c2c1=O | -7.1%
37 | COc1ccc(Cl)cc1S(=O)(=O)N1CC(=O)N(CCc2ccccc2)C(=O)C1 | 0.238%
38 | CCOc1ccc(CN2CCC(N3CCCCC3)CC2)cc1 | -3.37%
39 | CC(C)(C)NC(=O)c1cccc(NC(=O)c2ccc3c(c2)C(=O)N(Cc2cccnc2)C3=O)c1 | -7.96%
40 | COc1cccc2c1cc1c(=O)n(CC(=O)NCc3cccnc3)nc(C)n12 | -5.32%
41 | Cc1cc(-c2ccc(C)c(S(=O)(=O)NC3CCN(Cc4ccccc4)CC3)c2)on1 | -4.51%
42 | COc1cc(C(=O)N2CCN(Cc3ccccc3F)CC2)cc(OC)c1OC | -2.32%
43 | O=S(=O)(c1ccc(-c2cc(C(F)(F)F)no2)s1)N1CCC(c2ccccc2)C1 (stereo not drawn) | 0.359%
44 | Nc1ccccc1C(=O)NCCc1ccccc1 | -6.65%
45 | CCCCCCNc1nc2c(c(=O)n(C)c(=O)n2C)n1Cc1cc(OC)ccc1Cl | -3.24%
46 | O=C(NCCN1CCN(Cc2ccccc2)CC1)C1CC(=O)N(C2CCCC2)C1 (stereo not drawn) | -2.99%
47 | Clc1ccccc1CCNC1CCN(Cc2ccccc2)CC1 | 1.38%
48 | CN(C)c1ccc(C(=O)N2CCN(c3ccc(F)cc3)CC2)cc1 | -2.22%
49 | COc1cc(C2C3=C(CC(C)(C)CC3=O)OC3=C2C(=O)CC(C)(C)C3)c(Cl)cc1O | 13.4%
50 | O=S(=O)(O)c1nc2ccncc2[nH]1 | 4.47%
51 | COc1cc2c(cc1OC)CN(Cc1ccc(O)cc1)CC2 | 0.847%
